Reference: the supplement of paper PMC8728848
The list shows a part of the results.

Tests used:
Assay in all cases: glycan array binding signal (z-score within array); higher = stronger binding
Conditions in all cases: glycan notation: IUPAC condensed, linker removed
[1] = target: Fuc(a1-2)Gal
Outline: (§1)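 The binding signal is a Z-score computed within each array and averaged over linkers. Arrays of the same protein sequence at different concentrations or buffers were also averaged together. Data originate from 3228 arrays in the Consortium for Functional Glycomics database, kept only where the protein sequence was available.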

[2] = target: Fuc(a1-2)Gal(b1-3)GalNAc
Outline: as §1

[3] = target: Fuc(a1-2)Gal(b1-3)GalNAc(a1-3)[Fuc(a1-2)]Gal(b1-4)Glc
Outline: as §1

[4] = target: Fuc(a1-2)Gal(b1-3)GalNAc(a1-3)[Fuc(a1-2)]Gal(b1-4)GlcNAc
Outline: as §1

[5] = target: Fuc(a1-2)Gal(b1-3)GalNAc(b1-3)Gal
Outline: as §1

[6] = target: Fuc(a1-2)Gal(b1-3)GalNAc(b1-3)Gal(a1-4)Gal(b1-4)Glc
Outline: as §1

[7] = target: Fuc(a1-2)Gal(b1-3)GalNAc(b1-4)[Neu5Ac(a2-3)]Gal(b1-4)Glc
Outline: as §1

[8] = target: Fuc(a1-2)Gal(b1-3)GlcNAc
Outline: as §1

[9] = target: Fuc(a1-2)Gal(b1-3)GlcNAc(b1-2)Man(a1-3)[Fuc(a1-2)Gal(b1-3)GlcNAc(b1-2)Man(a1-6)]Man(b1-4)GlcNAc(b1-4)GlcNAc
Outline: as §1

[10] = target: Fuc(a1-2)Gal(b1-3)GlcNAc(b1-2)Man(a1-3)[Fuc(a1-2)Gal(b1-3)GlcNAc(b1-2)Man(a1-6)]Man(b1-4)GlcNAc(b1-4)[Fuc(a1-6)]GlcNAc
Outline: as §1

[11] = target: Fuc(a1-2)Gal(b1-3)GlcNAc(b1-3)Gal(b1-4)Glc
Outline: as §1

[12] = target: Fuc(a1-2)Gal(b1-3)GlcNAc(b1-3)GalNAc
Outline: as §1

[13] = target: Fuc(a1-2)Gal(b1-3)GlcNAc(b1-3)[Fuc(a1-2)Gal(b1-3)GlcNAc(b1-6)]GalNAc
Outline: as §1

[14] = target: Fuc(a1-2)Gal(b1-3)GlcNAc(b1-3)[Gal(b1-4)GlcNAc(b1-6)]Gal(b1-4)Glc
Outline: as §1

[15] = target: Fuc(a1-2)Gal(b1-3)GlcNAc(b1-3)[Neu5Ac(a2-6)Gal(b1-4)GlcNAc(b1-6)]Gal(b1-4)Glc
Outline: as §1

[16] = target: Fuc(a1-2)Gal(b1-3)GlcNAc6S
Outline: as §1

[17] = target: Fuc(a1-2)Gal(b1-3)[Fuc(a1-4)]GlcNAc
Outline: as §1

[18] = target: Fuc(a1-2)Gal(b1-3)[Fuc(a1-4)]GlcNAc(b1-2)Man(a1-3)[Fuc(a1-2)Gal(b1-3)[Fuc(a1-4)]GlcNAc(b1-2)Man(a1-3)]Man(b1-4)GlcNAc(b1-4)GlcNAc
Outline: as §1

[19] = target: Fuc(a1-2)Gal(b1-3)[Fuc(a1-4)]GlcNAc(b1-2)Man(a1-3)[Fuc(a1-2)Gal(b1-3)[Fuc(a1-4)]GlcNAc(b1-2)Man(a1-6)]Man(b1-4)GlcNAc(b1-4)[Fuc(a1-6)]GlcNAc(b1-4)[Fuc(a1-6)]GlcNAc
Outline: as §1

[20] = target: Fuc(a1-2)Gal(b1-3)[Fuc(a1-4)]GlcNAc(b1-3)[Fuc(a1-3)[Gal(b1-4)]GlcNAc(b1-6)]Gal(b1-4)Glc
Outline: as §1

[21] = target: Fuc(a1-2)Gal(b1-3)[Fuc(a1-4)]GlcNAc(b1-3)[Gal(b1-4)GlcNAc(b1-6)]Gal(b1-4)Glc
Outline: as §1

[22] = target: Fuc(a1-2)Gal(b1-4)Glc
Outline: as §1

[23] = target: Fuc(a1-2)Gal(b1-4)Glc6S
Outline: as §1

[24] = target: Fuc(a1-2)Gal(b1-4)GlcNAc
Outline: as §1

[25] = target: Fuc(a1-2)Gal(b1-4)GlcNAc(b1-2)Man
Outline: as §1

[26] = target: Fuc(a1-2)Gal(b1-4)GlcNAc(b1-2)Man(a1-3)[Fuc(a1-2)Gal(b1-4)GlcNAc(b1-2)Man(a1-6)]Man(b1-4)GlcNAc(b1-4)GlcNAc
Outline: as §1

[27] = target: Fuc(a1-2)Gal(b1-4)GlcNAc(b1-2)Man(a1-3)[Fuc(a1-2)Gal(b1-4)GlcNAc(b1-2)Man(a1-6)]Man(b1-4)GlcNAc(b1-4)[Fuc(a1-6)]GlcNAc
Outline: as §1

[28] = target: Fuc(a1-2)Gal(b1-4)GlcNAc(b1-2)[Fuc(a1-2)Gal(b1-4)GlcNAc(b1-4)]Man(a1-3)[Fuc(a1-2)Gal(b1-4)GlcNAc(b1-2)Man(a1-6)]Man(b1-4)GlcNAc(b1-4)GlcNAc
Outline: as §1

[29] = target: Fuc(a1-2)Gal(b1-4)GlcNAc(b1-3)Gal(b1-4)GlcNAc
Outline: as §1

[30] = target: Fuc(a1-2)Gal(b1-4)GlcNAc(b1-3)Gal(b1-4)GlcNAc(b1-2)Man(a1-3)[Fuc(a1-2)Gal(b1-4)GlcNAc(b1-3)Gal(b1-4)GlcNAc(b1-2)Man(a1-6)]Man(b1-4)GlcNAc(b1-4)GlcNAc
Outline: as §1

[31] = target: Fuc(a1-2)Gal(b1-4)GlcNAc(b1-3)Gal(b1-4)GlcNAc(b1-3)Gal(b1-4)GlcNAc
Outline: as §1

[32] = target: Fuc(a1-2)Gal(b1-4)GlcNAc(b1-3)GalNAc
Outline: as §1

[33] = target: Fuc(a1-2)Gal(b1-4)GlcNAc(b1-3)[Fuc(a1-2)Gal(b1-4)GlcNAc(b1-6)]GalNAc
Outline: as §1

[34] = target: Fuc(a1-2)Gal(b1-4)GlcNAc(b1-3)[Fuc(a1-3)[Gal(b1-4)]GlcNAc(b1-6)]Gal(b1-4)Glc
Outline: as §1

[35] = target: Fuc(a1-2)Gal(b1-4)GlcNAc(b1-6)GalNAc
Outline: as §1

[36] = target: Fuc(a1-2)Gal(b1-4)GlcNAc6S
Outline: as §1

[37] = target: Fuc(a1-2)Gal(b1-4)[Fuc(a1-3)]GlcNAc
Outline: as §1

[38] = target: Fuc(a1-2)Gal(b1-4)[Fuc(a1-3)]GlcNAc(b1-2)Man(a1-3)[Fuc(a1-2)Gal(b1-4)[Fuc(a1-3)]GlcNAc(b1-2)Man(a1-6)]Man(b1-4)GlcNAc(b1-4)[Fuc(a1-6)]GlcNAc
Outline: as §1

[39] = target: Fuc(a1-2)Gal(b1-4)[Fuc(a1-3)]GlcNAc(b1-2)[Fuc(a1-2)Gal(b1-4)[Fuc(a1-3)]GlcNAc(b1-4)]Man(a1-3)[Fuc(a1-2)Gal(b1-4)[Fuc(a1-3)]GlcNAc(b1-2)Man(a1-6)]Man(b1-4)GlcNAc(b1-4)GlcNAc
Outline: as §1

[40] = target: Fuc(a1-2)Gal(b1-4)[Fuc(a1-3)]GlcNAc(b1-3)Gal(b1-4)[Fuc(a1-3)]GlcNAc
Outline: as §1

[41] = target: Fuc(a1-2)Gal(b1-4)[Fuc(a1-3)]GlcNAc(b1-3)Gal(b1-4)[Fuc(a1-3)]GlcNAc(b1-3)Gal(b1-4)[Fuc(a1-3)]GlcNAc
Outline: as §1

[42] = target: Fuc(a1-2)Gal(b1-4)[Fuc(a1-3)]GlcNAc(b1-3)GalNAc
Outline: as §1

[43] = target: Fuc(a1-2)Gal(b1-4)[Fuc(a1-3)]GlcNAc(b1-3)[Neu5Ac(a2-6)Gal(b1-4)GlcNAc(b1-6)]Gal(b1-4)Glc
Outline: as §1

[44] = target: Fuc(a1-2)Gal3S(b1-4)GlcNAc
Outline: as §1

[45] = target: Fuc(a1-2)Gal6S(b1-3)GlcNAc
Outline: as §1

B1: rEtpA (Escherichia coli) (protein)
chain: MNRIYKLKFDKRRNELVVVSEITTGVGNAKATGSVEGEKSPRRGVRAMALSLLSGMMIMAHPAMSANLPTGGQIVAGSGSIQTPSGNQMNIHQNSQNMVANWNSFDIGKGNTVQFDQPSSSAVALNRVVGGGESQIMGNLKANGQVFLVNPNGVLFGEGASVSTSGFVASTRDIKNDDFMNRRYTFSGGQKAGAAIVNQGELTTNAGGYIVLAADRVSNSGTIRTPGGKTVLAASERITLQLDNGGLMSVQVTGDVVNALVENRGLVSARDGQVYLTALGRGMLMNTVLNVSGVVEASGMHRQDGNIVLDGGDSGVVHLSGTLQADNASGQGGKVVVQGKNILLDKGSNITATGGQGGGEVYVGGGWQGKDSNIRNADKVVMQGGARIDVSATQQGNGGTAVLWSDSYTNFHGQISAKGGETGGNGGRVETSSHGNLQAFGTVSASAKKGKAGNWLLDSADITIVNGSNVSKTETTQSPPHTQFAPTAAGSAVSNTSINNRLNNGTSVTILTHRTRTGTAQGGNITVNAAINKSNGSDVNLTLQAGGNITVNNSITSTEGKLNVNLSGARTSNGSITISNNANITTNGGDITVGTTNTSNRVNISINNTTLNASNGNIQLTGTGTDSGILFAGNNRLTASNIALTGNSTSGNAINLTGTATLNATNNITLTGSSTSGNAINLKGNNTLTASNITLTGESTSGNAINLTDTTGTTTLNATNNITMQGTRVQIKHSNITAGNFALNATVAGSEISNTTLTATNNINLAAKTNSASSGVYLKDARITSTNGSITANGTATANGKATHLDGNVTLNASNGRIKLTGNGHGSASGILFAGNNRLTASNIALTGNSTSGNAINLTGTATLNATNDITLTGSSTSGNAINLTGTATLNATNNITLTGSSTSGNAINLKGNNTLTASNITLTGESTSGNAINLTDTTGTTTLNATNNITMQGTRVQIKHSNITAGNFALNATVAGSEISNTTLTATNNINLAAKTNSASSGVYLKDARITSTNGSITANGTATANGKATHLDGNVTLNASNGRIKLTGNGHGSASGILFAGNNRLTASNIALTGNSTSGNAINLTGTATLNATNDITLTGSSTSGNAINLTGTATLNATNNITLTGSSTSGNAINLKGNNTLTASNITLTGESTSGNAINLTDTTGTTTLNATNNITMQGTRVQIKHSNITAGNFALNATVAGSEISNTTLTATNNINLAAKTNSASSGVYLKDARITSTNGSITANGTATANGKATHLDGNVTLNASNGRIKLTGNGHGSASGILFAGNNRLTASNIALTGNSTSGNAINLTGTATLNATNDITLTGSSTSGNAINLTGTATLNATNNITLTGSSTSGNAINLKGNNTLTASNITLTGESTSGNAINLTDTTGTTTLNATNNITMQGTRVQIKHSNITAGNFALNATVAGSEISNTTLTATNNINLAAKTNSASSGVYLKDARITSTNGSITTNGTATANGKATHLDGNVTLNASNGRIKLTGNGHGSASGILFAGNNRLTASNIALTGNSTSGNAINLTGTATLNATNDITLTGSSTSGNAINLTGTATLNATNNITLTGSSTSGNAINLKGNNTLTASNITLTGESTSGNAINLTDTTGTTTLNATNNITMQGTRVQIKHSNITAGNFALNATVAGSEISNTTLTATNNINLAAKTNSASSGVYLKDARITSTNGSITANGTAPANDNATYLDGNVTLNASNGSIKLTGNGNGSTSGILFAGNNTLTASNITLTGNSEVYWQKLGPEQKLISEEDLNSAVDHHHHHH
[1]
  glycan array binding signal (z-score): -0.235
[2]
  glycan array binding signal (z-score): -0.3
[3]
  glycan array binding signal (z-score): -0.246
[4]
  glycan array binding signal (z-score): -0.356
[5]
  glycan array binding signal (z-score): -0.115
[6]
  glycan array binding signal (z-score): -0.343
[7]
  glycan array binding signal (z-score): -0.085
[8]
  glycan array binding signal (z-score): 0.222
[9]
  glycan array binding signal (z-score): 0.038
[10]
  glycan array binding signal (z-score): 0.335
[11]
  glycan array binding signal (z-score): -0.419
[12]
  glycan array binding signal (z-score): -0.417
[13]
  glycan array binding signal (z-score): -0.424
[14]
  glycan array binding signal (z-score): -0.058
[15]
  glycan array binding signal (z-score): -0.391
[16]
  glycan array binding signal (z-score): -0.279
[17]
  glycan array binding signal (z-score): -0.19
[18]
  glycan array binding signal (z-score): 0.758
[19]
  glycan array binding signal (z-score): 0.292
[20]
  glycan array binding signal (z-score): -0.388
[21]
  glycan array binding signal (z-score): -0.339
[22]
  glycan array binding signal (z-score): -0.231
[23]
  glycan array binding signal (z-score): -0.171
[24]
  glycan array binding signal (z-score): -0.294
[25]
  glycan array binding signal (z-score): -0.239
[26]
  glycan array binding signal (z-score): 1.13
[27]
  glycan array binding signal (z-score): -0.021
[28]
  glycan array binding signal (z-score): 0.456
[29]
  glycan array binding signal (z-score): -0.393
[30]
  glycan array binding signal (z-score): -0.364
[31]
  glycan array binding signal (z-score): -0.326
[32]
  glycan array binding signal (z-score): -0.377
[33]
  glycan array binding signal (z-score): -0.27
[34]
  glycan array binding signal (z-score): -0.238
[35]
  glycan array binding signal (z-score): -0.296
[36]
  glycan array binding signal (z-score): -0.341
[37]
  glycan array binding signal (z-score): -0.161
[38]
  glycan array binding signal (z-score): -0.245
[39]
  glycan array binding signal (z-score): -0.225
[40]
  glycan array binding signal (z-score): -0.345
[41]
  glycan array binding signal (z-score): -0.333
[42]
  glycan array binding signal (z-score): -0.319
[43]
  glycan array binding signal (z-score): -0.367
[44]
  glycan array binding signal (z-score): -0.293
[45]
  glycan array binding signal (z-score): -0.038
